Experimental data published in the supplement of paper PMC2702839.
Counter-ions that a name gives are not always drawn. This is one part of the list.

tested on: Schistosoma mansoni schistosomula; experiment: phenotypic hit in primary schistosomula screen (any phenotype vs DMSO control) (binary (1 = hit, 0 = no phenotype)); higher = active (phenotype induced); conditions: 1 µM; time (d): 7

| SMILES | phenotypic hit |
| --- | --- |
| CC[C@]1(O)C[C@@H]2CN(CCc3c([nH]c4ccccc34)[C@@](C(=O)OC)(c3cc4c(cc3OC)N(C)[C@H]3[C@@](O)(C(=O)OC)[C@H](OC(C)=O)[C@]5(CC)C=CCN6CC[C@]43[C@@H]65)C2)C1 [vinblastine sulfate] | inactive: 0 |
| CCOC(=O)c1c(C)cc(O)c(C)c1O [methylorsellinic acid, ethyl ester] | inactive: 0 |
| CCN(CCCc1ccccc1)CCCc1ccccc1 [alverine citrate] | inactive: 0 |
| NCCCCCN [cadaverine sulfate] | inactive: 0 |
| CCN(CC)C(=O)N1CCN(C)CC1 [diethylcarbamazine citrate] | inactive: 0 |
| O=C(O)c1cc(O)c(O)c(O)c1 [gallic acid] | inactive: 0 |
| CC(C)=CCc1c(O)cc(C)oc1=O [2-isoprenyl-3-hydroxy-5-methyl-a-pyrone] | inactive: 0 |
| COc1c(OC)c2occc2c2oc(=O)ccc12 [pimpinellin] | inactive: 0 |
| CCCC(C(=O)OCCN(CC)CC)(c1ccccc1)c1ccccc1 [SKF-525A hydrochloride] | inactive: 0 |
| CN1CCC[C@H]1c1cccnc1 [nicotine ditartrate] | inactive: 0 |
| Clc1ccccc1C(c1ccccc1)(c1ccccc1)n1ccnc1 [clotrimazole] | inactive: 0 |
| NC(=O)NO [hydroxyurea] | inactive: 0 |
| Clc1ccc(COC(Cn2ccnc2)c2ccc(Cl)cc2Cl)cc1 (configuration not stated) [econazole nitrate] | inactive: 0 |
| O=C(O)c1cc(=O)c2c(OCC(O)COc3cccc4oc(C(=O)O)cc(=O)c34)cccc2o1 [cromolyn sodium] | inactive: 0 |
| Cc1ccc(O)c([C@H](CCN(C(C)C)C(C)C)c2ccccc2)c1 [tolterodine hydrochloride] | inactive: 0 |
| CCCCC[C@H](CC(=O)NO)C(=O)N[C@H](C(=O)N1CCC[C@H]1CO)C(C)C [actinonin] | inactive: 0 |
| CC(=O)OC(C)C[N+](C)(C)C (configuration not stated) [methacholine chloride] | inactive: 0 |
| CCCCOc1ccc(CC(=O)NO)cc1 [bufexamac] | inactive: 0 |
| Oc1c(Cl)cc(Cl)cc1Sc1cc(Cl)cc(Cl)c1O [bithionol] | active: 1 |
| C=CCc1ccccc1OCC(O)CNC(C)C (configuration not stated) [Alprenolol hydrochloride] | inactive: 0 |
| COc1ccc2c(c1)[C@@]1(C)CCC(=O)C[C@@H]1CC2 [5alpha-12-methoxy-4,4-bisnor-8,11,13-podocarpatrien-3-one] | inactive: 0 |
| NC[C@H]1CC[C@H](C(=O)O)CC1 [tranexamic acid] | inactive: 0 |
